Reference: PubChem BioAssay (NCATS)
Some of the results follow. The main result of the screen is listed elsewhere. These columns were measured beside it and carry no call. Most of these compounds were active or inconclusive in the main read-out, so they are no random draw. The note in brackets gives the kind of curve behind each potency; many fits are weak.

Assay: qHTS Assay for Lipid Storage Modulators (AID 1519)
Conditions: Drosophila S3 cells, BODIPY lipid droplet/cell ratio, laser cytometry; measured here: lipid (BODIPY) channel AC50; cells loaded with oleic acid
Outline: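 Cells seeded at 5,000 per well were treated with compounds over a concentration series and loaded with oleic acid (400 uM, as added). Lipid droplet fluorescence (488 nm excitation, 500-530 nm channel) was read by laser-scanning cytometry and normalized to 20 uM Triacsin C.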
Tags tell the direction and shape of the fitted curve.

SMILES | AC50
COCCn1c(=O)c(-c2cccs2)nc2cnc(Oc3ccccc3)nc21 | 4470 nM [falling, full curve]
COc1ccc(CNc2ncncc2-c2ccccc2C)c(OC)c1 | 5010 nM [rising, partial curve]
Clc1ccccc1-c1nc(Nc2ccncc2)c2ccccc2n1 | 224 nM [rising, full curve, poor fit]
O=S(=O)(c1ccccc1)N1CCC[C@@]2(CCN(Cc3ccccc3)C2)C1 | 31.6 nM [rising, full curve, poor fit]
COc1ccc(-c2oc3cc(OC)c(OC(C)=O)c(OC)c3c(=O)c2OC)cc1OC(C)=O | 2510 nM [rising, full curve]

Same assay, conditions: Drosophila S3 cells, BODIPY lipid droplet/cell ratio, laser cytometry; measured here: lipid channel max response; cells loaded with oleic acid

SMILES | max response [%]
CN(C)c1ncc2nc(-c3ccc(Cl)cc3)c(=O)n(Cc3cccs3)c2n1 | -3.52
FC(F)(F)c1ccccc1-c1cncnc1NCc1cccnc1 | 47.3
COc1cccc(-c2nccc(NCc3ccccc3OC)n2)c1 | 19.4
CC(C)=CCc1c2c(c3occ(-c4ccc(O)c(O)c4)c(=O)c3c1O)C=CC(C)(C)O2 | -77.8
CC(C)=CCCC(C)CCO (stereo not given) | 73.2
O=C(c1cccc(F)c1)N1CCC2(CCCN(Cc3cc(C(F)(F)F)cc(C(F)(F)F)c3)C2)CC1 | 4.92
CN(C)c1ncc2nc(CCc3ccccc3)c(=O)n(Cc3ccc(F)cc3)c2n1 | 23
CC(=O)NCCNc1ccnc(-c2ccccc2C)n1 | 33.3
CCNc1ncc2nc(-c3ccc(OC)cc3)c(=O)n(CCc3ccccc3)c2n1 | 38.4
O=C(NC1CCN(Cc2ccccc2)CC1)c1ccc(I)cc1 | 134
O=S(=O)(c1ccccc1)N1CCC[C@@]2(CCN(c3cccc(-c4ccccc4)c3)C2)C1 | 32.4
COc1cccc(-c2cc(NCc3cccnc3)ncn2)c1 | 49.8
COc1ccccc1CNc1nc(-c2ccoc2)nc2ccccc12 | 14
COc1cc2c(C(=O)c3ccccc3)c3c4c(cc(OC)c(OC)c4c2cc1OC)CCN3C | -81.6
COc1ccc2[nH]cc(CCNc3ncnc4ccc(-c5c(C)noc5C)cc34)c2c1 | 12.7
O=c1c(-c2ccc(F)c(F)c2)nc2cncnc2n1-c1ccccc1 | 50.6
O=c1c(-c2cc(F)cc(F)c2)nc2cnc(N3CCNCC3)nc2n1CCc1ccccc1 | 19.3
COc1ncc2nc(CCc3ccccc3)c(=O)n(Cc3ccc(F)cc3)c2n1 | 18.2
CN(C)C(=O)c1ccc(-c2nc(-n3ccnc3)c3ccccc3n2)cc1 | 38.9
O=C1c2ccccc2S(=O)(=O)N1CCCCN1CCN(c2ncccn2)CC1 | 95.5

SMILES | max response [%]
O=c1cnc2cnc(Oc3ccccc3)nc2n1C[C@H]1CCCO1 | 30.4
COc1ccc2c(c1OC)C(Cc1ccccc1)N1CCc3cc4c(cc3C1C2)OCO4 (stereo not given) | -21.1
c1ccc(Nc2nc(-c3ccc4c(c3)OCO4)nc3ccccc23)cc1 | -11.1
COc1ccccc1CNc1nc(-c2ccc(N(C)C)cc2)nc2ccccc12 | -72.6
CC(C)N=c1cc2n(-c3ccc(Cl)cc3)c3ccccc3nc-2cc1Nc1ccc(Cl)cc1 | -112
O[C@H](CCCN1CCN(c2ncc(F)cn2)CC1)c1ccc(F)cc1 | 71.6
COc1cccc(Cn2c(=O)c(-c3ccc(Cl)cc3)nc3cnc(N4CCNCC4)nc32)c1 | -84.9
CCNc1ncc2nc(-c3cn(C)c4ccccc34)c(=O)n(Cc3cccs3)c2n1 | 10.6
Cc1ccccc1-c1ccc2ncnc(N3CCOCC3)c2c1 | 5.98
COc1cc2c(C)c3c4c(cc(OC)c(OC)c4c2cc1OC)CCN3C | 72
COc1ccc(-c2ccc(N)[n+](CCCC(=O)O)n2)cc1 | 41.8
CSc1cc2c(cc1C(F)(F)F)N(C(=O)Nc1cccnc1)CC2 | 175
Cc1cnc(CNc2nc(-c3ccoc3)nc3ccccc23)cn1 | 65.4
COCCn1c(=O)c(-c2ccccc2)nc2cnc(Oc3cccc(Cl)c3)nc21 | 19.7
CC[C@]1(O)C[C@@H]2CN(CCc3c([nH]c4ccccc34)[C@](C(=O)OC)(c3cc4c(cc3OC)N(C=O)[C@H]3[C@@](O)(C(=O)OC)[C@H](C(=O)OC)[C@@]5(CC)C=CCN6CC[C@]43[C@H]65)C2)C1 | 77.2
COCCn1c(=O)c(-c2cccs2)nc2cnc(Oc3ccccc3)nc21 | -58.7
COc1ccc(CNc2ncncc2-c2ccccc2C)c(OC)c1 | 19.6
Clc1ccccc1-c1nc(Nc2ccncc2)c2ccccc2n1 | 23.3
O=S(=O)(c1ccccc1)N1CCC[C@@]2(CCN(Cc3ccccc3)C2)C1 | 22.8
COc1ccc(-c2oc3cc(OC)c(OC(C)=O)c(OC)c3c(=O)c2OC)cc1OC(C)=O | 67.1
